We go through 42 compounds from ChEMBL document CHEMBL4888484, “Replenishing the malaria drug discovery pipeline: Screening and hit evaluation of the MMV Hit Generation Library 1 (HGL1) against asexual blood stage Plasmodium falciparum ,using a nano luciferase reporter read-out” (2022).

The structures appear in SMILES notation. The campaign covered roughly 150,000 compounds. About 540 (0.36%) showed an effect of 50% or more. This is one part of the list.

This assay relates to Plasmodium falciparum. Put plainly: Primary screen in NF54 nanoGlo assay, in single point, at 2uM, 72h; a lower Z score goes with more inhibition. The assay is classed as functional, Erythrocyte. To be noted: timepoint 72 hour.
Regarding `CCCOc1ccc(Br)cc1C(N)=O`, the % Inhibition (commonly the drop in the measured response relative to a control, in per cent) came to 34% and the Z score is -3.87.

For `CC(C)c1csc(C2CCCN(C3CCOC3=O)C2)n1` (centres undefined), the “% Inhibition” value is on record as -7% and the Z score stood at 0.69.

For the compound `CN1CC2CN(C(=O)NCc3ccc(F)cc3)CC(C1)O2`, the “% Inhibition” value is given as -17% and the Z score came out at 2.08.

With `Cn1ccc(N[C@@H](C(=O)NC2CC2)c2ccccc2)n1`, the “% Inhibition” value is given as -7% and the Z score amounted to 1.17.

On to `CC(=O)N[C@H]1CN(C(=O)c2ccoc2C)C[C@@H]1c1ccc(C)cc1`, for which the “% Inhibition” value is listed as -14% and the Z score came to 1.78.

In the case of `COc1ncccc1C(=O)N1C2CCC1CC(n1ccnn1)C2` (centres undefined), the “% Inhibition” value is reported as -9% and the Z score is listed as 1.35.

Consider `Cc1ccc(-c2cnc(C3CC3)o2)cc1S(=O)(=O)Nc1cccc(C)c1C`, for which the “% Inhibition” value is reported as -2% and the Z score is reported as 0.33.

As to `CCN(C(=O)c1nnn(-c2cccc3cccnc23)c1C)[C@H]1CC(=O)NC1=O`, the “% Inhibition” value is listed as -9% and the Z score turned out to be 1.16.

With `Cc1c(F)cccc1-n1nnc(C(=O)NCCc2cccs2)c1C`, the “% Inhibition” value is -3% and the Z score came out at 0.38.

Regarding `O=S(=O)(CCC1CCc2ccccc21)N1CCC2COCC2C1` (centres undefined), the “% Inhibition” value was 35% and the Z score was -3.98.

Consider `CCOC(=O)c1nc2n(c1-c1cccc(C#N)c1)CCCC2`, for which the “% Inhibition” value is reported as -28% and the Z score amounted to 3.05.

Take `O=C(COC(=O)CCC1CCCCC1)Nc1ccc2c(c1)OCO2`: the “% Inhibition” value was -8% and the Z score worked out at 1.5.

For the compound `CCOc1ccc(CNCCOCCO)cc1Cl`, the “% Inhibition” value is reported as -8% and the Z score is listed as 0.89.

With `CCCn1nc(C(=O)N(Cc2ccccc2)c2ccccc2)ccc1=O`, the “% Inhibition” value is recorded as -13% and the Z score is 1.41.

Regarding `C[C@@H](c1nnnn1C)N1CCN(Cc2ccc(Br)cc2)CC1`, the “% Inhibition” value is 33% and the Z score is listed as -3.78.

Consider `CCc1cnc(C)nc1N(C)CC1(CO)CCOCC1`, for which the “% Inhibition” value is reported as 0% and the Z score is listed as -0.05.

Regarding `Cc1nc(CC(N)=NOCC(=O)N2CCCc3ccccc32)no1`, the “% Inhibition” value is -3% and the Z score is on record as 0.37.

On to `Cc1ccc2c(c1)Oc1nc3ccccc3nc1O2`, for which the “% Inhibition” value amounted to 3% and the Z score is on record as -0.41.

Regarding `COc1ccc(CC(=O)N2CCC3(CC[C@@H]3O)CC2)cc1Cl`, the “% Inhibition” value was 36% and the Z score is listed as -4.6.

Take `OCC1(CNCc2ccc(OC[C@H]3CCCO3)cc2)CCC1`: the “% Inhibition” value is -2% and the Z score was 0.23.

On to `O=C(Cn1nnc2ccccc21)NCC1CCC1`, for which the “% Inhibition” value was -5% and the Z score came to 0.73.

For the compound `Cc1cc2c(cc1S(=O)(=O)N(C)CC(=O)N1CCC(C)CC1)OCC(=O)N2`, the “% Inhibition” value is reported as -3% and the Z score came out at 0.38.

In the case of `O=C1COc2cccnc2N1CCCOc1ccc(F)cc1`, the “% Inhibition” value came to 1% and the Z score was -0.22.

As for `N#Cc1cccc(Cn2cnc3c2c(=O)n(Cc2ccco2)c(=O)n3-c2ccccc2)c1`, the “% Inhibition” value was -9% and the Z score is on record as 1.39.

On to `CC[C@@H](C(=O)NC1CC1)N(c1ccc(OC)cc1)c1nc(C(C)(C)C)cs1`, for which the “% Inhibition” value is 11% and the Z score is recorded as -1.07.

For the compound `COc1ccc(OC)c(-c2cc(C(=O)NCC3CCN(C(=O)c4ccoc4)CC3)n(C)n2)c1`, the “% Inhibition” value was -2% and the Z score is listed as 0.27.

Turning to `O=C(c1cccc(=O)[nH]1)N1CC(C(F)(F)F)C1`, the “% Inhibition” value is reported as -7% and the Z score came to 0.96.

On to `CC1CCN(C(=O)NCCS(=O)(=O)NC2CC2)CC1`, for which the “% Inhibition” value is listed as -2% and the Z score amounted to 0.33.

`O=C(Cn1ccccc1=O)N[C@H]1CCCCNC1=O`: the “% Inhibition” value is recorded as -1% and the Z score was determined as 0.18.

For `CCNC(=O)N(C)Cc1ccc(OC)c(O)c1`, the “% Inhibition” value is listed as -11% and the Z score came out at 2.

With `CCCC[C@@H]1NC(=O)c2ccc(OC)c(c2)OCCCn2cc(nn2)CNC(=O)[C@@H](C)NC1=O`, the “% Inhibition” value is -20% and the Z score is 3.88.

As for `CCC(C)c1ccc(C(C)NC(=O)CCC(=O)O)cc1` (centres undefined), the “% Inhibition” value is listed as -2% and the Z score is 0.26.

Turning to `Cc1ccc(CCC(=O)N2CCC[C@@H]2C(=O)O)c(C)c1`, the “% Inhibition” value is given as -8% and the Z score was found to be 0.91.

For the compound `COc1cc(S(=O)(=O)N(CC#N)C2CCCC2)sn1`, the “% Inhibition” value is listed as -1% and the Z score was 0.12.

Consider `COc1ccc(Nc2c(-c3nc(C(C)C)no3)cnc3nc(C)ccc23)cc1OC`, for which the “% Inhibition” value is listed as -13% and the Z score stood at 1.5.

Consider `COc1cc(C(=O)NCCc2ccccc2)c(N(C)S(C)(=O)=O)cc1OC`, for which the “% Inhibition” value is given as -5% and the Z score amounted to 0.75.

For the compound `COCCN(Cc1c(C)nn(-c2ccccc2)c1Oc1ccc(F)cc1F)C[C@H](O)COCc1ccccc1`, the “% Inhibition” value is given as -6% and the Z score is reported as 0.98.

On to `CO[C@@H](CNC(=O)NCc1ncnn1C(C)(C)C)C(C)C`, for which the “% Inhibition” value is recorded as 3% and the Z score was -0.56.

On to `CC(C)n1c(-c2cn(C3CCN(S(C)(=O)=O)CC3)nn2)nc2ccccc21`, for which the “% Inhibition” value is reported as -14% and the Z score is on record as 2.87.

In the case of `CCCNC(=O)[C@H](C)NC(=O)Nc1ccc(C)cc1C`, the “% Inhibition” value was -6% and the Z score is 0.7.

For `CCN1CCN(CC#CCOc2c(OC)cccc2OC)CC1`, the “% Inhibition” value is -8% and the Z score is given as 0.88.

For `CCN1CCCN(CC(=O)Nc2ccc(NC(C)=O)cc2)[C@@H](C)C1`, the “% Inhibition” value was -8% and the Z score is recorded as 0.83.
